# Measurements: PubChem BioAssay AID588689 (Southern Research Specialized Biocontainment Screening …, 2011)
# Among all 340,000 compounds or so, about 1,000 (0.29%) were called active. The inconclusive results got no clear call from the source; some entries with a clear call stand among them for comparison. No stated cut-off is given here; in the data, inconclusive means inhibition above about 29% without an active follow-up result; inactive means below that.
# Target: Genome polyprotein (Dengue virus type 2 (strain 16681-PDK53)) (UniProt P29991)
# Chain of UniProt P29991 (P29991 whole entry, looked up): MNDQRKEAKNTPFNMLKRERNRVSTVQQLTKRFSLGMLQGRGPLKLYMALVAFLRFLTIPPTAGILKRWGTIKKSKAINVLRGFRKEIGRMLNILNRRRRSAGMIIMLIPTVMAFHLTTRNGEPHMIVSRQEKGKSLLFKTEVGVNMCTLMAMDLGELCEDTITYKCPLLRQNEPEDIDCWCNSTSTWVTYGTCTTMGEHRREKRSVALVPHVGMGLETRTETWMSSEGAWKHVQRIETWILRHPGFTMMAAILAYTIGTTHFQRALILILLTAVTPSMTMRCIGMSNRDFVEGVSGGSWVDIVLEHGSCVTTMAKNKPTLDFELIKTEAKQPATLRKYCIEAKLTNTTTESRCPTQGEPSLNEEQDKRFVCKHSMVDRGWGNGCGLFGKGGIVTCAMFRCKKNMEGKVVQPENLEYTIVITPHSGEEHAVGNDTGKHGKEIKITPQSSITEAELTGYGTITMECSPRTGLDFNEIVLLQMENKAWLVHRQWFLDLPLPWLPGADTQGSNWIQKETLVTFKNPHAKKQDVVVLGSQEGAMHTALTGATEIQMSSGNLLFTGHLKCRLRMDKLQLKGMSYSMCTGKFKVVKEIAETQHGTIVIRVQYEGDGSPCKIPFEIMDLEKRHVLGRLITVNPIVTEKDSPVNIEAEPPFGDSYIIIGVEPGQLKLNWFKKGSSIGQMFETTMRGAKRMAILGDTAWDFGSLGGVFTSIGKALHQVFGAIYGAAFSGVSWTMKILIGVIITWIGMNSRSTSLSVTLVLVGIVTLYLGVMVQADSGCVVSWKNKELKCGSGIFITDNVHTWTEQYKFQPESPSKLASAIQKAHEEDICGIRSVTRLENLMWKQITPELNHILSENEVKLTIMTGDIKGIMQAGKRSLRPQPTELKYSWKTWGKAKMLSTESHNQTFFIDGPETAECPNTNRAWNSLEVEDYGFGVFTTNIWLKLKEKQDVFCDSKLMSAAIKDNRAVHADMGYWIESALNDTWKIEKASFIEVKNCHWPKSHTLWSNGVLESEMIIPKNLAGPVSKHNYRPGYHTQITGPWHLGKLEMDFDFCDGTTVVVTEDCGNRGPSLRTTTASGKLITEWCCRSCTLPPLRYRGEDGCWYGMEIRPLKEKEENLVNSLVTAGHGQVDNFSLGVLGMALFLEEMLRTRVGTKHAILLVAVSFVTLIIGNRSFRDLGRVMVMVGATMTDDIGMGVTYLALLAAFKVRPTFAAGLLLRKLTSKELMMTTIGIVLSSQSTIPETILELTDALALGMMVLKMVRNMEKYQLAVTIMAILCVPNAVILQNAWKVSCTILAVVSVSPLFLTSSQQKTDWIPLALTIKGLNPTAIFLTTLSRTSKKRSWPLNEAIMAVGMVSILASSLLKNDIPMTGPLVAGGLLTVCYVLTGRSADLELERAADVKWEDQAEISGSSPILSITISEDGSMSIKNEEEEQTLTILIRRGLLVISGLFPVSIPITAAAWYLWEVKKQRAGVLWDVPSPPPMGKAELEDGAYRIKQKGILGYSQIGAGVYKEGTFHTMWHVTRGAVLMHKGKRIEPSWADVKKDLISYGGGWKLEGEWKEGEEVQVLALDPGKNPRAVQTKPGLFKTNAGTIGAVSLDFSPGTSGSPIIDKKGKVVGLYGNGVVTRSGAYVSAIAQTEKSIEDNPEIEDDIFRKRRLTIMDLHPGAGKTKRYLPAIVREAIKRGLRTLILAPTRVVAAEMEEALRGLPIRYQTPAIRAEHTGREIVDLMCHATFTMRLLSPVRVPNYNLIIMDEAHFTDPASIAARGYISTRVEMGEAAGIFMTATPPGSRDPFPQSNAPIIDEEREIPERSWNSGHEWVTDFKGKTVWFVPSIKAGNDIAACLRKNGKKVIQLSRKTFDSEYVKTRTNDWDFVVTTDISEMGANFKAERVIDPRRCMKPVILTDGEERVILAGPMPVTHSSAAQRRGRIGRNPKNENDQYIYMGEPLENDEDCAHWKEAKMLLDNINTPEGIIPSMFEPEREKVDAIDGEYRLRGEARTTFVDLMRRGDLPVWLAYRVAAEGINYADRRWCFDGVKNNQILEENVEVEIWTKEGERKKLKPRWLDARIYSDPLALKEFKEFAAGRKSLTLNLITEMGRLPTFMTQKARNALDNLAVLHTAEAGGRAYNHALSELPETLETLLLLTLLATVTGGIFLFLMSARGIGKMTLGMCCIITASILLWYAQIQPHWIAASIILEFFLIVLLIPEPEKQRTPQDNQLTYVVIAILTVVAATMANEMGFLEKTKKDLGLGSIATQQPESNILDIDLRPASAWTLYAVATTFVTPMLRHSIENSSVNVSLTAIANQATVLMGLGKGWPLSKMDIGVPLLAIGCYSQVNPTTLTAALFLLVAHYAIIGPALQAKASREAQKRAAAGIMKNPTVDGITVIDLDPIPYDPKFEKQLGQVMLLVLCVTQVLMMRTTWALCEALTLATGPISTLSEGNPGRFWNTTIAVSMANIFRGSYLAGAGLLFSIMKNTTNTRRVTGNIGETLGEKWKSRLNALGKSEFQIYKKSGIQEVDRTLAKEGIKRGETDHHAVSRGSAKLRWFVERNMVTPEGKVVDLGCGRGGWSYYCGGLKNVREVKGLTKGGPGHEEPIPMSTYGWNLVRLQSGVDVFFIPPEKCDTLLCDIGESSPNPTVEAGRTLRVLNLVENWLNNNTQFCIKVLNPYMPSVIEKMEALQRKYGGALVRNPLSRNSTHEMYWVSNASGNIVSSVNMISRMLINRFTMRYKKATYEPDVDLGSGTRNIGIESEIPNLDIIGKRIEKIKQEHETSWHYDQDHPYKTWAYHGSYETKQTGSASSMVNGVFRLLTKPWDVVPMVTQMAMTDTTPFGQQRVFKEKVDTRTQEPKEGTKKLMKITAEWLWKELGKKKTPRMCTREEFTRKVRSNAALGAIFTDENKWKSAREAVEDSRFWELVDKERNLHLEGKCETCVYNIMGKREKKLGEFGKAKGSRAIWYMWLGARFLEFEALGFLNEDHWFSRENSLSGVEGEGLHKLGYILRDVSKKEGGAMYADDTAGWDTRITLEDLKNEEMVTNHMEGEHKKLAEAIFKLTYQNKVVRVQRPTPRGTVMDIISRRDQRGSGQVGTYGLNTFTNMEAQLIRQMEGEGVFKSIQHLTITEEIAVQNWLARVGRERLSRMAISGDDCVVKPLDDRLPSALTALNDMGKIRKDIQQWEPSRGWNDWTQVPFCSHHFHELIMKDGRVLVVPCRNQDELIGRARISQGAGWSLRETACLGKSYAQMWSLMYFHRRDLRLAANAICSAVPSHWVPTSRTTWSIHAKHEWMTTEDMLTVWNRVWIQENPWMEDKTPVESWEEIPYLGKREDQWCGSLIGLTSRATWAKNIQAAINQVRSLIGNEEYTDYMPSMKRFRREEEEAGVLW
# Test: Dengue-2 NS5 methyltransferase inhibitors, primary screen, biochemical, confirmation dose response (AID 588689)
# Details: Dengue-2 NS5 methyltransferase capping enzyme assay, at 25 µM, hits give high values
row,Structure (SMILES),inhibition
1,CCOc1ccc2nc(/N=C/c3nc(-c4ccc(Br)cc4)oc3O)sc2c1,inconclusive: 35.3%
2,CCOC(=O)C1=C(O)/C(=C/c2cn(CC(=O)NCC3CCCO3)c3ccccc23)SC1=Nc1ccc(C)cc1 (stereo unspecified),inconclusive: 127%
3,CCOc1ccccc1/C=c1\sc2nc(-c3ccco3)nn2c1=O,inconclusive: 52.4%
4,CCCCN1C(=O)/C(=C/C=C2\SCCN2C)SC1=S,inconclusive: 34.7%
5,CN(C)c1ccc(/C=C2/C[N+](C)(C)C/C(=C/c3ccc(N(C)C)cc3)C2=O)cc1,inconclusive: 41.8%
6,C=CCn1c(COc2ccccc2F)nnc1SCC(=O)N1CC(=O)Nc2ccccc21,inconclusive: 51%
7,O=c1[nH]c(SCc2nc3c(cnn3-c3ccccc3)c(=O)[nH]2)nc2ccccc12,inconclusive: 36.6%
8,O=C(O)c1cc(Cl)ccc1-c1ccc(/C=C/c2cc(C(F)(F)F)[nH]c(=O)n2)o1,inconclusive: 155%
9,N#C/C(=C\C=C\c1ccccc1)c1nc(-c2ccc3c(c2)OCO3)cs1,inconclusive: 68.7%
10,Cc1ccc2nc(N3C(=O)C(O)=C(C(=O)c4ccco4)C3c3ccc(O)cc3)sc2c1 (stereo unspecified),inactive: 3.66%
11,CCN1C(=O)/C(=C/c2ccc(N3CCCC3)cc2)NC1=S,inconclusive: 152%
12,Cc1ccc(S(=O)(=O)n2cnc3cc([N+](=O)[O-])ccc32)cc1C,inactive: 0.8%
13,COc1cccc(Nc2ccc(N3CCCCC3)cc2)c1OC,inconclusive: 79.4%
14,NC(=O)C1CCN(C(=O)CN2CCCc3ccccc32)CC1,inconclusive: 54.3%
15,N#Cc1c2ccc(O)cc2n2ccccc12,inconclusive: 86%
16,COc1ccc(C(=O)c2ccsc2N)cc1,inconclusive: 83.8%
17,CN(C)c1ccc(/C=C/C(=O)c2cccnc2)cc1,inconclusive: 45.3%
18,O=C1OC(c2ccccc2)c2ccc3ccccc3c21 (stereo unspecified),inactive: -10.9%
19,CC(=O)N1CCN(c2ccc(N=Cc3c(O)n(Cc4ccccc4)c(=O)[nH]c3=O)cc2)CC1,inconclusive: 32.5%

row,Structure (SMILES),inhibition
1,CCN(CC)c1ccc2c(c1)OC(N)=C(C#N)C2c1cccnc1 (stereo unspecified),inconclusive: 110%
2,Cn1c2ccccc2c(=O)c2ccc(NCc3ccc4c(c3)OCO4)cc21,inconclusive: 42.2%
3,COc1ccc(CNC(=O)CN(Cc2ccccc2F)C(=O)c2csnn2)cc1,inactive: -7.27%
4,Cc1[nH]c2ccccc2c1/C=C/c1cc[n+](C)cc1,inconclusive: 48.8%
5,Nc1ccc2c3c(cccc13)-c1ccccc1-2,inconclusive: 44.8%
6,CNC[C@@H]1OCc2cnnn2CCCC(=O)N([C@H](C)CO)C[C@H]1C,inactive: 2.27%
7,COc1cc2c(=O)[nH]c3cc([N+](=O)[O-])ccc3c2cc1[N+](=O)[O-],inactive: 8.05%
8,CN(C)c1ccc(/C=N/N(CCC(=O)NC(C)(C)C)C2=NS(=O)(=O)c3ccccc32)cc1,inconclusive: 71.3%
9,COc1cc(NC(=O)c2ccc(COCC(F)(F)F)o2)cc(OC)c1OC,inactive: 0%
10,COC(=O)Cn1cc(C(=O)OC)c2ccccc21,inactive: -2.39%
11,O=C1NC(=S)S/C1=C\c1cc(Cl)cc(Cl)c1O,inconclusive: 110%
12,O=C1NC(=S)N/C1=C/c1cccc([N+](=O)[O-])c1,inactive: 1.48%
13,Cc1cc2nc3c(=O)n(CCc4ccccc4)c(=O)[nH]c3nc2cc1N,inconclusive: 45.3%
14,Cc1ccc(S(=O)(=O)N(C)CC(=O)N2CCCc3ccccc32)cc1,inactive: 3.9%
15,O=C1NC(=S)S/C1=C\c1ccc(SCc2ccco2)o1,inconclusive: 85.8%
16,Nc1c(C(=O)NC23CC4CC(CC(C4)C2)C3)sc2nc3c(c(C(F)(F)F)c12)CCC3,inconclusive: 74.1%
17,Cc1cc2ccccc2n1CCNC(=O)C1CCCC1,inconclusive: 29.7%
18,COC(=O)c1ccc(-n2c(C)cc(C(=O)COC(=O)C3=COCCO3)c2C)cc1,inconclusive: 61.6%
19,N=c1c(S(=O)(=O)c2ccccc2)cc2c(=O)n3ccccc3nc2n1Cc1cccnc1,inconclusive: 67.7%

row,Structure (SMILES),inhibition
1,CN(C)c1ccc(/C=C2\Oc3ccc(C#Cc4cccc(N)c4)cc3C2=O)cc1,inconclusive: 168%
2,O=C(N/N=C\c1c(O)ccc2ccccc12)c1cncc(Br)c1,inconclusive: 70.6%
3,O=C(NC(=O)c1ccccc1)OCCN1C(=O)c2ccccc2C1=O,inactive: -5.92%
4,COc1ccc(NC(=O)Nc2ccc(OCc3ccccc3)cc2)cn1,inconclusive: 45.4%
5,O=C(NCCO)C(=O)NCC(c1cccs1)S(=O)(=O)c1ccc(F)cc1 (stereo unspecified),inactive: 0%
6,Cc1nc2ccc(NC(=O)c3ccc([N+](=O)[O-])cc3[N+](=O)[O-])cc2s1,inactive: -5.18%
7,O=C(Cc1ccc(S(=O)(=O)N2CCOCC2)s1)Nc1nc2c(s1)CCCC2,inconclusive: 58.4%
8,CCCCCCc1cc2cc(-c3nnc(-c4ccccc4OC)o3)c(=O)oc2cc1O,inconclusive: 177%
9,COc1ccccc1NS(=O)(=O)c1cc([N+](=O)[O-])ccc1N/N=C/c1sc(N2CCOCC2)nc1-c1ccccc1,inconclusive: 43.7%
10,CC(=O)c1ccc(NC(=O)c2ccc3nc(-c4ccco4)c(-c4ccco4)nc3c2)cc1,inconclusive: 65.4%
11,COc1cc(/C=C(\C#N)c2nc3c(s2)CC(C)CC3)ccc1O (stereo unspecified),inconclusive: 46.1%
12,CC(=O)N1C(=O)C(=C2C=C(C)OC(C)=C2)c2ccccc21,inconclusive: 35.4%
13,CCCCCCOC(=O)C(C#N)c1nc2ccccc2nc1N1CCOCC1 (stereo unspecified),inconclusive: 90.1%
14,CN(C)CCNCCCNc1c2ccccc2nc2cccc([N+](=O)[O-])c12,inconclusive: 46%
15,CN(C)c1ccc(/C=C2\SC(=S)N(Nc3ncc(C(F)(F)F)cc3Cl)C2=O)cc1,inconclusive: 170%
16,O=C(CNC(=O)c1cccs1)Nc1ccncc1,inactive: 1.47%
17,CCOc1ccc(/C=C2\CCCc3c2nc2ccccc2c3C(=O)O)cc1OC,inconclusive: 174%
18,c1ccc2c(c1)CCCN2Cc1nnnn1CC1CCCO1 (stereo unspecified),inconclusive: 91.1%
